Test results reported in a compilation of properties of binary mixtures (doi:10.1007/s10953-016-0490-x).
Some of these densities may be calculated back from excess volumes.

Assay: xn = mol fraction of the nth substance listed
Details: 100 kPa

Work on `CCOC(C)=O` + CCCC[n+]1ccn(C)c1.O=S(=O)([O-])C(F)(F)F yielded a mass density (303.15 K, x2 = 0) of 888.4 kg/m3, a mass density (308.15 K, x2 = 0) of 882.2 kg/m3 and a mass density (313.15 K, x2 = 0) of 876 kg/m3. The mass density (318.15 K, x2 = 0) was 869.7 kg/m3 and the mass density (323.15 K, x2 = 0) was 863.4 kg/m3.
With `CCCC[n+]1ccn(C)c1.O=S(=O)([O-])C(F)(F)F` + CCOC(C)=O the mass density (298.15 K, x1 = 0.0991) was 981.2 kg/m3, the mass density (298.15 K, x1 = 0.1916) was 1046.3 kg/m3 and the mass density (298.15 K, x1 = 0.3056) was 1110 kg/m3. It also gave a mass density (298.15 K, x1 = 0.3978) of 1151.4 kg/m3, a mass density (298.15 K, x1 = 0.5067) of 1188.8 kg/m3 and a mass density (298.15 K, x1 = 0.7138) of 1244.8 kg/m3. The mass density (298.15 K, x1 = 0.7987) was 1262.9 kg/m3, the mass density (298.15 K, x1 = 1) was 1297.5 kg/m3 and the mass density (303.15 K, x1 = 0.0991) was 975.6 kg/m3. The mass density (303.15 K, x1 = 0.1916) was 1041.4 kg/m3, the mass density (303.15 K, x1 = 0.3056) was 1105.2 kg/m3 and the mass density (303.15 K, x1 = 0.5067) was 1184.6 kg/m3. It also gave a mass density (303.15 K, x1 = 0.6095) of 1214.6 kg/m3, a mass density (303.15 K, x1 = 0.7138) of 1240.6 kg/m3 and a mass density (303.15 K, x1 = 0.7987) of 1258.7 kg/m3. It also gave a mass density (303.15 K, x1 = 0.8932) of 1276 kg/m3, a mass density (308.15 K, x1 = 0.0991) of 970 kg/m3 and a mass density (308.15 K, x1 = 0.1916) of 1036.4 kg/m3. For the same molecule, the mass density (308.15 K, x1 = 0.3056) was 1100.4 kg/m3, the mass density (308.15 K, x1 = 0.3978) was 1142.1 kg/m3 and the mass density (308.15 K, x1 = 0.5067) was 1180 kg/m3. For the same molecule, the mass density (308.15 K, x1 = 0.6095) was 1210.2 kg/m3, the mass density (308.15 K, x1 = 0.7138) was 1236.2 kg/m3 and the mass density (308.15 K, x1 = 0.7987) was 1254.5 kg/m3. It also gave a mass density (308.15 K, x1 = 0.8932) of 1271.9 kg/m3, a mass density (308.15 K, x1 = 1) of 1289.5 kg/m3 and a mass density (313.15 K, x1 = 0.1916) of 1031.5 kg/m3. For the same molecule, the mass density (313.15 K, x1 = 0.3056) was 1095.6 kg/m3, the mass density (313.15 K, x1 = 0.3978) was 1137.4 kg/m3 and the mass density (313.15 K, x1 = 0.5067) was 1175.5 kg/m3. The mass density (313.15 K, x1 = 0.6095) was 1205.7 kg/m3, the mass density (313.15 K, x1 = 0.7138) was 1232.1 kg/m3 and the mass density (313.15 K, x1 = 0.7987) was 1250.2 kg/m3. For the same molecule, the mass density (313.15 K, x1 = 0.8932) was 1267.7 kg/m3, the mass density (318.15 K, x1 = 0.0991) was 958.5 kg/m3 and the mass density (318.15 K, x1 = 0.3056) was 1090.7 kg/m3. For the same molecule, the mass density (318.15 K, x1 = 0.3978) was 1132.7 kg/m3, the mass density (318.15 K, x1 = 0.5067) was 1170.9 kg/m3 and the mass density (318.15 K, x1 = 0.6095) was 1201.2 kg/m3. For the same molecule, the mass density (318.15 K, x1 = 0.7138) was 1227.9 kg/m3, the mass density (318.15 K, x1 = 0.7987) was 1246 kg/m3 and the mass density (318.15 K, x1 = 0.8932) was 1263.5 kg/m3. The mass density (323.15 K, x1 = 0.0991) was 952.7 kg/m3, the mass density (323.15 K, x1 = 0.1916) was 1021.3 kg/m3 and the mass density (323.15 K, x1 = 0.3056) was 1085.9 kg/m3. It also gave a mass density (323.15 K, x1 = 0.3978) of 1128.1 kg/m3, a mass density (323.15 K, x1 = 0.5067) of 1166.4 kg/m3 and a mass density (323.15 K, x1 = 0.6095) of 1196.7 kg/m3. It also gave a mass density (323.15 K, x1 = 0.7138) of 1223.8 kg/m3 and a mass density (323.15 K, x1 = 1) of 1277.5 kg/m3.
